Results as given in the supplement of paper PMC7826260.
The other results are listed elsewhere or left out. Cleavage of a single-stranded DNA pool by Rep nickase domains was read by sequencing (1 h at 37 °C, 3 µM enzyme); the outer parts of the 90-letter strands are left off. Uncut reads are compared with the no-enzyme pool on a log2 scale; strong cutting gives strongly negative numbers. There is no active / inactive call. Counts are relative to all reads, so uncut sequences can rise above 0 when many others are cut.

How the values were obtained:
Test in all cases: uncleaved DNA left, log2 of reads against the no-enzyme library (log2 ratio); higher = less cleavage (more negative = more Rep cleavage of the k-mer); sequences stand for … in CTCGTCCG…ACCGGAGA
[1] = tested on: T1, Rep nickase domain of Muscovy duck circovirus
T1 sequence (protein, residues 1-111, tag omitted): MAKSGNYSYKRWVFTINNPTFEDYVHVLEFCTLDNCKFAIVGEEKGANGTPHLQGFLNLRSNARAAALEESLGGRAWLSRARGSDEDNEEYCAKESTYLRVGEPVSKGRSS
Procedure: (§1)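 A pool of 90-nt single-stranded DNAs with seven random bases just before the constant AC of the nick site (name = the seven bases) was cut by 3 µM recombinant His6-SUMO-tagged Rep nickase domain (300 nM DNA, 50 mM HEPES pH 8.0, 50 mM NaCl, 1 mM MnCl2, 1 h, 37 °C, three replicates). Uncut DNA was amplified and sequenced.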

[2] = tested on: T2, Rep nickase domain of banana bunchy top virus
T2 sequence (protein, residues 1-94, tag omitted): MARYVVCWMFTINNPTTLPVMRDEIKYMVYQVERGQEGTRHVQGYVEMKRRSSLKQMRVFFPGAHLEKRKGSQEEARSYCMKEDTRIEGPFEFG
Procedure: as §1

[3] = tested on: T3, Rep nickase domain of cabbage leaf curl virus
T3 sequence (protein, residues 1-116, tag omitted): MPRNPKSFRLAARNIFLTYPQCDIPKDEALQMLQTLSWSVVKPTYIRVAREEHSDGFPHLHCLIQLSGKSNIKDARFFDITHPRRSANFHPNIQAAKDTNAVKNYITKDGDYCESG
Procedure: as §1

[4] = tested on: T4, Rep nickase domain of chickpea chlorotic dwarf virus
T4 sequence (protein, residues 1-124, tag omitted): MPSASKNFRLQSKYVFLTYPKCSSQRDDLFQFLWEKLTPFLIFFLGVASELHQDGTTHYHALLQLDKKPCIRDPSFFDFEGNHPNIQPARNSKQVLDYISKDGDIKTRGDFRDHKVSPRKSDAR
Procedure: as §1

[5] = tested on: T5, Rep nickase domain of faba bean necrotic yellows virus
T5 sequence (protein, residues 1-98, tag omitted): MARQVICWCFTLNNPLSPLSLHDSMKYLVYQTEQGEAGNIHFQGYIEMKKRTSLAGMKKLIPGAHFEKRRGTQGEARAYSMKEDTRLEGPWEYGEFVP
Procedure: as §1

[6] = tested on: T6, Rep nickase domain of maize striate mosaic virus
T6 sequence (protein, residues 1-117, tag omitted): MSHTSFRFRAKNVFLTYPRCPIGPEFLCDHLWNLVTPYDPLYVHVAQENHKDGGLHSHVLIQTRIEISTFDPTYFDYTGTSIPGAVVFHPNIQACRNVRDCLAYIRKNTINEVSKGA
Procedure: as §1

[7] = tested on: T7, Rep nickase domain of porcine circovirus 2
T7 sequence (protein, residues 2-116, tag omitted): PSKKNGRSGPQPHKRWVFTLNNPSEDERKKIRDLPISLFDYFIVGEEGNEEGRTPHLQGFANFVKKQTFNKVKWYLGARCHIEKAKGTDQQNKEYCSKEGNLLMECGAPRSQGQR
Procedure: as §1

[8] = tested on: T8, Rep nickase domain of tomato golden mosaic virus
T8 sequence (protein, residues 1-124, tag omitted): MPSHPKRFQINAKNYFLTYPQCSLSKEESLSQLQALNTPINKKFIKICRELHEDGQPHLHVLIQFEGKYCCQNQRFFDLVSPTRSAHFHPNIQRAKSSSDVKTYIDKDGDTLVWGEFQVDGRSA
Procedure: as §1

[9] = tested on: T9, Rep nickase domain of tomato yellow leaf curl virus
T9 sequence (protein, residues 1-136, tag omitted): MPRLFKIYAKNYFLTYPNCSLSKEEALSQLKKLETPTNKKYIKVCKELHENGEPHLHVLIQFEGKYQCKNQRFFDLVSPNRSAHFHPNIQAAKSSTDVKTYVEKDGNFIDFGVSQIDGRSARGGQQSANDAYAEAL
Procedure: as §1

[10] = tested on: T10, Rep nickase domain of wheat dwarf virus
T10 sequence (protein, residues 1-137, tag omitted): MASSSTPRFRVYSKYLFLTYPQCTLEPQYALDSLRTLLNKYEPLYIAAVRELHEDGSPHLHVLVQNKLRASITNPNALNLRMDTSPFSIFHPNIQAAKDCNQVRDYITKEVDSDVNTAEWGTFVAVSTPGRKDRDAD
Procedure: as §1

Row | Sequence | uncleaved DNA left (log2) [1] | uncleaved DNA left (log2) [2] | uncleaved DNA left (log2) [3] | uncleaved DNA left (log2) [4] | uncleaved DNA left (log2) [5] | uncleaved DNA left (log2) [6] | uncleaved DNA left (log2) [7] | uncleaved DNA left (log2) [8] | uncleaved DNA left (log2) [9] | uncleaved DNA left (log2) [10]
1 | CGGCGCT | -0.01 | -0.116 | -0.264 | -0.306 | -0.00511 | -0.311 | 0.0909 | 0.0198 | -0.0963 | -0.0276
2 | TGGTAAT | -0.568 | 0.0182 | 0.37 | 0.51 | -0.278 | 1.6 | -3.38 | -0.0848 | -0.00281 | -0.0224
3 | CCATCTC | -0.0433 | -0.00393 | 0.00294 | -0.168 | -0.0168 | -0.447 | 0.0165 | -0.0483 | 0.0166 | -0.0875
4 | GTATACT | -2.08 | -0.0648 | -0.0363 | 0.215 | 0.0084 | 1.66 | -1.87 | -0.0159 | 0.0597 | -0.0336
5 | CATCGAC | 0.0313 | 0.00705 | -0.184 | -0.0472 | 0.0729 | -0.431 | 0.0405 | 0.0612 | -0.0244 | -0.104
6 | CGATGTA | -0.0725 | -0.00721 | -0.151 | -0.0545 | -0.145 | 0.448 | -0.132 | -0.149 | -0.12 | -0.159
7 | TGATCAG | 0.0947 | 0.0197 | -0.503 | -0.43 | 0.0648 | -1 | 0.234 | 0.0226 | 0.149 | -0.0228
8 | GTAATTG | 0.0727 | -0.0553 | -0.0851 | -0.0509 | -0.00541 | -0.472 | 0.0631 | 0.0604 | 0.0491 | -0.00623
9 | ATTAGAG | 0.00353 | 0.0222 | -0.68 | -0.462 | 0.0381 | -1.12 | 0.19 | 0.045 | -0.0139 | 0.0503
10 | CTGCACT | 0.0347 | -0.0353 | -0.295 | -1.67 | -0.133 | -0.741 | -0.331 | -0.199 | -0.099 | -0.096
11 | AACCCCC | -0.147 | -0.00401 | 0.315 | -0.0555 | 0.0476 | 0.129 | -0.659 | -0.0965 | 0.0645 | 0.0218
12 | ACTGAGA | 0.114 | 0.149 | -0.103 | 0.276 | 0.0467 | -0.616 | 0.176 | 0.125 | 0.194 | 0.178
13 | GGCTGAC | -0.0933 | 0.0292 | 0.545 | 1.55 | -0.0385 | 1.53 | 0.176 | 0.0439 | -0.0581 | 0.098
14 | CATAGGC | -0.00266 | -0.0308 | -0.0286 | -0.0254 | -0.0488 | -0.975 | 0.0796 | -0.0773 | 0.00732 | -0.108
15 | ATGTGGC | -0.0609 | 0.0191 | -0.265 | -0.471 | -0.0109 | -1.01 | 0.177 | -0.0871 | 0.00597 | -0.079
16 | ACGCGCT | -0.008 | 0.0192 | -0.711 | -0.928 | -0.086 | -1.24 | 0.0847 | 0.00194 | -0.0978 | -0.144
17 | AGTGTGA | 0.13 | -0.00953 | -0.109 | -0.0693 | -0.031 | -0.456 | -0.127 | 0.0423 | -0.027 | -0.0217
18 | TTTCGTA | -0.102 | 0.0691 | -0.0694 | -0.816 | 0.0187 | -0.747 | -0.252 | -0.0414 | -0.0995 | 0.0127
19 | CCTCTTT | -0.144 | -0.289 | -0.31 | -2.12 | -0.0719 | -0.853 | -0.397 | -0.174 | -0.296 | -0.125
20 | GCCGGTC | 0.111 | -0.104 | 0.394 | 0.574 | -0.0453 | 0.564 | 0.165 | -0.027 | 0.0767 | -0.11
21 | AGTTGCG | 0.0458 | -0.0193 | 0.379 | 1.35 | 0.126 | 1.83 | 0.225 | 0.0332 | -0.0209 | 0.0962
22 | CACCTAA | -0.0198 | 0.00426 | -0.24 | -1.5 | 0.00997 | -0.776 | -0.26 | -0.0326 | -0.032 | -0.0866
23 | GTCCACA | 0.013 | 0.0476 | 0.232 | 0.701 | -0.185 | 1.56 | 0.00367 | 0.0494 | -0.0286 | 0.176
24 | ACATGAT | -0.368 | 0.0217 | -0.231 | -0.434 | 0.0377 | -0.384 | -1.26 | 0.0556 | -0.0126 | -0.00453
25 | AGCTATG | 0.044 | 0.0294 | -0.0788 | 0.607 | -0.00787 | 1.4 | 0.0481 | 0.141 | 0.0694 | 0.11
26 | TCTCCGG | 0.0377 | 0.0626 | 0.607 | 1.47 | 0.114 | 1.99 | 0.184 | 0.157 | -0.0504 | 0.157
27 | GCTATAC | -0.0226 | 0.041 | 0.183 | 0.229 | 0.059 | -0.0419 | 0.0856 | -0.0264 | -0.00723 | -0.042
28 | GGGTATG | 0.0703 | 0.0405 | 0.784 | 1.74 | -0.062 | 2.06 | 0.138 | -0.0872 | -0.0116 | 0.0836
29 | ATCTAGG | 0.0824 | 0.0435 | 0.394 | 1.16 | 0.0309 | 0.99 | 0.107 | 0.0381 | 0.0176 | 0.0628
